Some of the results follow. Interaction screen of human proteins with wild-type SARS-CoV-2 proteins by split-DHFR complementation in yeast, 1 µg/mL methotrexate. Value = fitness of the pair (three or more lineages) minus that of the viral protein without a human partner, on a scale set by negative (0) and fused positive (1) controls, mean of up to three cultures; higher = more likely to interact. Active = false discovery rate below 0.05 (one-sided t-test) in at least one culture. Nearly all pairs are not hits, and differences among them are mostly noise (correlation between cultures about 0.3); most hits were seen in one culture only. Human sequences are the Swiss-Prot entries looked up by gene name; the clone may be another isoform. NSP2 values were corrected by the authors for a growth advantage. Listed are human proteins with a hit and a random twelfth of the others.
B1: KLHL17, Q6TDP4 (protein)
chain: MQPRSERPAGRTQSPEHGSPGPGPEAPPPPPPQPPAPEAERTRPRQARPAAPMEGAVQLLSREGHSVAHNSKRHYHDAFVAMSRMRQRGLLCDIVLHVAAKEIRAHKVVLASCSPYFHAMFTNEMSESRQTHVTLHDIDPQALDQLVQFAYTAEIVVGEGNVQTLLPAASLLQLNGVRDACCKFLLSQLDPSNCLGIRGFADAHSCSDLLKAAHRYVLQHFVDVAKTEEFMLLPLKQVLELVSSDSLNVPSEEEVYRAVLSWVKHDVDARRQHVPRLMKCVRLPLLSRDFLLGHVDAESLVRHHPDCKDLLIEALKFHLLPEQRGVLGTSRTRPRRCEGAGPVLFAVGGGSLFAIHGDCEAYDTRTDRWHVVASMSTRRARVGVAAVGNRLYAVGGYDGTSDLATVESYDPVTNTWQPEVSMGTRRSCLGVAALHGLLYSAGGYDGASCLNSAERYDPLTGTWTSVAAMSTRRRYVRVATLDGNLYAVGGYDSSSHLATVEKYEPQVNVWSPVASMLSRRSSAGVAVLEGALYVAGGNDGTSCLNSVERYSPKAGAWESVAPMNIRRSTHDLVAMDGWLYAVGGNDGSSSLNSIEKYNPRTNKWVAASCMFTRRSSVGVAVLELLNFPPPSSPTLSVSSTSL
B2: NBPF3, Q9H094 (protein)
chain: MPLTPTVQGFQWTLRGPDVETSPFGAPRAASHGVGRHQELRDPTVPGPTSSATNVSMVVSAGPWSGEKAEMNILEINKKSRPQLAENKQQFRNLKQKCLVTQVAYFLANRQNNYDYEDCKDLIKSMLRDERLLTEEKLAEELGQAEELRQYKVLVHSQERELTQLREKLQEGRDASRSLNQHLQALLTPDEPDNSQGRDLREQLAEGCRLAQHLVQKLSPENDDDEDEDVKVEEAEKVQELYAPREVQKAEEKEVPEDSLEECAITCSNSHHPCESNQPYGNTRITFEEDQVDSTLIDSSSHDEWLDAVCIIPENESDHEQEEEKGPVSPRNLQESEEEEAPQESWDEGDWTLSIPPDMSASYQSDRSTFHSVEEQQVGLALDIGRHWCDQVKKEDQEATSPRLSRELLDEKEPEVLQDSLDRFYSTPFEYLELPDLCQPYRSDFYSLQEQHLGLALDLDRMKKDQEEEEDQGPPCPRLSRELPEVVEPEDLQDSLDRWYSTPFSYPELPDSCQPYGSCFYSLEEEHVGFSLDVDEIEKYQEGEEDQKPPCPRLNEVLMEAEEPEVLQDSLDRCYSTTSTYFQLHASFQQYRSAFYSFEEQDVSLALDVDNRFFTLTVIRHHLAFQMGVIFPH
B3: GPSM3, Q9Y4H4 (protein)
chain: MEAERPQEEEDGEQGPPQDEEGWPPPNSTTRPWRSAPPSPPPPGTRHTALGPRSASLLSLQTELLLDLVAEAQSRRLEEQRATFYTPQNPSSLAPAPLRPLEDREQLYSTILSHQCQRMEAQRSEPPLPPGGQELLELLLRVQGGGRMEEQRSRPPTHTC
B4: GTF2B, Q00403 (protein)
chain: MASTSRLDALPRVTCPNHPDAILVEDYRAGDMICPECGLVVGDRVIDVGSEWRTFSNDKATKDPSRVGDSQNPLLSDGDLSTMIGKGTGAASFDEFGNSKYQNRRTMSSSDRAMMNAFKEITTMADRINLPRNIVDRTNNLFKQVYEQKSLKGRANDAIASACLYIACRQEGVPRTFKEICAVSRISKKEIGRCFKLILKALETSVDLITTGDFMSRFCSNLCLPKQVQMAATHIARKAVELDLVPGRSPISVAAAAIYMASQASAEKRTQKEIGDIAGVADVTIRQSYRLIYPRAPDLFPTDFKFDTPVDKLPQL

Tests used:
Assay in all cases: yeast fitness gain over the viral ORF with no human partner (scaled fitness); higher = more likely to interact
[1] = target: SARS-CoV-2 E
Protocol: (§1)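 Split mouse DHFR complementation in pooled diploid yeast: human ORFeome clones carry one fragment and viral ORFs the other; barcoded lineages compete in 1 µg/mL methotrexate and fitness is read by barcode sequencing in up to three cultures.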

[2] = target: SARS-CoV-2 M
Protocol: as §1

[3] = target: SARS-CoV-2 NSP1
Protocol: as §1

[4] = target: SARS-CoV-2 NSP10
Protocol: as §1

[5] = target: SARS-CoV-2 NSP12
Protocol: as §1

[6] = target: SARS-CoV-2 NSP13
Protocol: as §1

[7] = target: SARS-CoV-2 NSP14
Protocol: as §1

[8] = target: SARS-CoV-2 NSP15
Protocol: as §1

[9] = target: SARS-CoV-2 NSP16
Protocol: as §1

[10] = target: SARS-CoV-2 NSP2
Protocol: as §1

[11] = target: SARS-CoV-2 NSP4
Protocol: as §1

[12] = target: SARS-CoV-2 NSP5
Protocol: as §1

[13] = target: SARS-CoV-2 NSP6
Protocol: as §1

[14] = target: SARS-CoV-2 NSP7
Protocol: as §1

[15] = target: SARS-CoV-2 NSP8
Protocol: as §1

[16] = target: SARS-CoV-2 NSP9
Protocol: as §1

[17] = target: SARS-CoV-2 ORF10
Protocol: as §1

[18] = target: SARS-CoV-2 ORF3A
Protocol: as §1

[19] = target: SARS-CoV-2 ORF3B
Protocol: as §1

[20] = target: SARS-CoV-2 ORF6
Protocol: as §1

[21] = target: SARS-CoV-2 ORF7A
Protocol: as §1

[22] = target: SARS-CoV-2 ORF7B
Protocol: as §1

[23] = target: SARS-CoV-2 ORF8
Protocol: as §1

[24] = target: SARS-CoV-2 ORF9B
Protocol: as §1

[25] = target: SARS-CoV-2 ORF9Bwu (the 73-codon ORF)
Protocol: as §1

[26] = target: SARS-CoV-2 S
Protocol: as §1

[27] = target: SARS-CoV-2 N
Protocol: as §1

| Binder | yeast fitness gain [1] | yeast fitness gain [2] | yeast fitness gain [3] | yeast fitness gain [4] | yeast fitness gain [5] | yeast fitness gain [6] | yeast fitness gain [7] | yeast fitness gain [8] | yeast fitness gain [9] | yeast fitness gain [10] | yeast fitness gain [11] | yeast fitness gain [12] | yeast fitness gain [13] | yeast fitness gain [14] | yeast fitness gain [15] | yeast fitness gain [16] | yeast fitness gain [17] | yeast fitness gain [18] | yeast fitness gain [19] | yeast fitness gain [20] | yeast fitness gain [21] | yeast fitness gain [22] | yeast fitness gain [23] | yeast fitness gain [24] | yeast fitness gain [25] | yeast fitness gain [26] | yeast fitness gain [27] |
| --- | --- | --- | --- | --- | --- | --- | --- | --- | --- | --- | --- | --- | --- | --- | --- | --- | --- | --- | --- | --- | --- | --- | --- | --- | --- | --- | --- |
| B1 | inactive: 0.0302 | inactive: -0.0528 | inactive: -0.0426 | inactive: -0.0035 | inactive: 0.0445 | inactive: -0.0244 | inactive: -0.099 | inactive: -0.0451 | inactive: -0.0017 | inactive: -0.143 | inactive: 0.0991 | inactive: -0.0154 | inactive: 0.0189 | inactive: 0.0601 | inactive: 0.025 | inactive: 0.017 | inactive: 0.0239 | inactive: 0.0254 | inactive: -0.0471 | inactive: 0.0273 | inactive: -0.162 | inactive: 0.00319 | inactive: 0.00042 | inactive: 0.0137 | inactive: 0.0519 | inactive: 0.00963 | – |
| B2 | inactive: 0.0426 | inactive: 0.0482 | inactive: -0.019 | inactive: 0.00243 | inactive: -0.0214 | inactive: -0.0158 | – | inactive: 0.00138 | inactive: 0.0283 | inactive: -0.105 | inactive: 0.0677 | inactive: 0.0338 | inactive: 0.0118 | inactive: -0.0305 | inactive: 0.0661 | inactive: 0.0888 | inactive: -0.103 | inactive: 0.0188 | inactive: 0.0221 | inactive: 0.00135 | inactive: -0.0212 | inactive: 0.0446 | inactive: -0.00358 | inactive: -0.0343 | inactive: -0.0333 | inactive: 0.0347 | inactive: 0.067 |
| B3 | inactive: 0.0337 | inactive: -0.0509 | inactive: -0.043 | inactive: 0.0321 | inactive: -0.0709 | inactive: -0.0155 | inactive: -0.178 | inactive: 0.0405 | inactive: -0.15 | inactive: -0.216 | inactive: 0.0233 | inactive: 0.0259 | inactive: -0.0738 | inactive: -0.0715 | inactive: -0.025 | inactive: -0.0598 | inactive: 0.0327 | inactive: -0.0837 | inactive: -0.046 | inactive: 0.00633 | inactive: 0.0187 | inactive: -0.0334 | inactive: -0.0056 | inactive: 0.0769 | inactive: 0.0351 | inactive: 0.0394 | inactive: 0.138 |
| B4 | inactive: 0.0418 | inactive: 0.0435 | inactive: -0.000713 | inactive: -0.00265 | active: 0.0526 | inactive: 0.0197 | inactive: -0.0184 | inactive: -0.0261 | inactive: 0.0125 | inactive: -0.0318 | inactive: -0.039 | inactive: -0.000294 | inactive: 0.0391 | inactive: 0.0105 | inactive: 0.0308 | inactive: -0.0281 | inactive: 0.0111 | inactive: -0.0116 | inactive: 0.0125 | inactive: -0.00524 | inactive: -0.0304 | inactive: 0.0156 | inactive: -0.000375 | inactive: -0.000338 | inactive: 0.00525 | inactive: 0.0117 | inactive: -0.0731 |
